# Measurements reported in PubChem BioAssay AID504333 (National Center for Advancing Translational Sciences (NCATS), 2011).
# The campaign covered roughly 360,000 compounds. About 16,000 (4.4%) were called active. Inconclusive results, whose numbers are uncertain, are shown with a selection of clear calls. Calls follow the shape of the dose curve; as a rule, active = well fitted inhibition curve with a large enough effect; inconclusive = small, poorly fitted or top-dose-only effect; inactive = no such curve, though single readings can be large or run the other way. Where the call is inconclusive, the potency comes from a doubtful curve fit.
# Biological target: Bromodomain adjacent to zinc finger domain protein 2B (Homo sapiens) (UniProt Q9UIF8)
# Assay: qHTS Assay for Inhibitors of BAZ2B; also: nearly all actives have a fitted effect of over 60% in size
# Details: AlphaScreen BAZ2B-H3K14Ac peptide displacement; series mostly up to 114 µM
# Summary of the method: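 AlphaScreen displacement: compounds (up to 110uM) incubated 30 min at room temperature with a preformed 50 nM BAZ2B/50 nM biotinylated H3K14Ac peptide complex in PBS pH 7.4 with Tween-20. Donor and acceptor beads at 10 ug/mL final added, 20 min light-protected before reading.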
# Potency is read from the fitted curve at half-maximal effect; tags tell the direction and shape of the fitted curve.
# UniProt Q9UIF8, sequence (Q9UIF8 whole entry, looked up, the tested form may be a part): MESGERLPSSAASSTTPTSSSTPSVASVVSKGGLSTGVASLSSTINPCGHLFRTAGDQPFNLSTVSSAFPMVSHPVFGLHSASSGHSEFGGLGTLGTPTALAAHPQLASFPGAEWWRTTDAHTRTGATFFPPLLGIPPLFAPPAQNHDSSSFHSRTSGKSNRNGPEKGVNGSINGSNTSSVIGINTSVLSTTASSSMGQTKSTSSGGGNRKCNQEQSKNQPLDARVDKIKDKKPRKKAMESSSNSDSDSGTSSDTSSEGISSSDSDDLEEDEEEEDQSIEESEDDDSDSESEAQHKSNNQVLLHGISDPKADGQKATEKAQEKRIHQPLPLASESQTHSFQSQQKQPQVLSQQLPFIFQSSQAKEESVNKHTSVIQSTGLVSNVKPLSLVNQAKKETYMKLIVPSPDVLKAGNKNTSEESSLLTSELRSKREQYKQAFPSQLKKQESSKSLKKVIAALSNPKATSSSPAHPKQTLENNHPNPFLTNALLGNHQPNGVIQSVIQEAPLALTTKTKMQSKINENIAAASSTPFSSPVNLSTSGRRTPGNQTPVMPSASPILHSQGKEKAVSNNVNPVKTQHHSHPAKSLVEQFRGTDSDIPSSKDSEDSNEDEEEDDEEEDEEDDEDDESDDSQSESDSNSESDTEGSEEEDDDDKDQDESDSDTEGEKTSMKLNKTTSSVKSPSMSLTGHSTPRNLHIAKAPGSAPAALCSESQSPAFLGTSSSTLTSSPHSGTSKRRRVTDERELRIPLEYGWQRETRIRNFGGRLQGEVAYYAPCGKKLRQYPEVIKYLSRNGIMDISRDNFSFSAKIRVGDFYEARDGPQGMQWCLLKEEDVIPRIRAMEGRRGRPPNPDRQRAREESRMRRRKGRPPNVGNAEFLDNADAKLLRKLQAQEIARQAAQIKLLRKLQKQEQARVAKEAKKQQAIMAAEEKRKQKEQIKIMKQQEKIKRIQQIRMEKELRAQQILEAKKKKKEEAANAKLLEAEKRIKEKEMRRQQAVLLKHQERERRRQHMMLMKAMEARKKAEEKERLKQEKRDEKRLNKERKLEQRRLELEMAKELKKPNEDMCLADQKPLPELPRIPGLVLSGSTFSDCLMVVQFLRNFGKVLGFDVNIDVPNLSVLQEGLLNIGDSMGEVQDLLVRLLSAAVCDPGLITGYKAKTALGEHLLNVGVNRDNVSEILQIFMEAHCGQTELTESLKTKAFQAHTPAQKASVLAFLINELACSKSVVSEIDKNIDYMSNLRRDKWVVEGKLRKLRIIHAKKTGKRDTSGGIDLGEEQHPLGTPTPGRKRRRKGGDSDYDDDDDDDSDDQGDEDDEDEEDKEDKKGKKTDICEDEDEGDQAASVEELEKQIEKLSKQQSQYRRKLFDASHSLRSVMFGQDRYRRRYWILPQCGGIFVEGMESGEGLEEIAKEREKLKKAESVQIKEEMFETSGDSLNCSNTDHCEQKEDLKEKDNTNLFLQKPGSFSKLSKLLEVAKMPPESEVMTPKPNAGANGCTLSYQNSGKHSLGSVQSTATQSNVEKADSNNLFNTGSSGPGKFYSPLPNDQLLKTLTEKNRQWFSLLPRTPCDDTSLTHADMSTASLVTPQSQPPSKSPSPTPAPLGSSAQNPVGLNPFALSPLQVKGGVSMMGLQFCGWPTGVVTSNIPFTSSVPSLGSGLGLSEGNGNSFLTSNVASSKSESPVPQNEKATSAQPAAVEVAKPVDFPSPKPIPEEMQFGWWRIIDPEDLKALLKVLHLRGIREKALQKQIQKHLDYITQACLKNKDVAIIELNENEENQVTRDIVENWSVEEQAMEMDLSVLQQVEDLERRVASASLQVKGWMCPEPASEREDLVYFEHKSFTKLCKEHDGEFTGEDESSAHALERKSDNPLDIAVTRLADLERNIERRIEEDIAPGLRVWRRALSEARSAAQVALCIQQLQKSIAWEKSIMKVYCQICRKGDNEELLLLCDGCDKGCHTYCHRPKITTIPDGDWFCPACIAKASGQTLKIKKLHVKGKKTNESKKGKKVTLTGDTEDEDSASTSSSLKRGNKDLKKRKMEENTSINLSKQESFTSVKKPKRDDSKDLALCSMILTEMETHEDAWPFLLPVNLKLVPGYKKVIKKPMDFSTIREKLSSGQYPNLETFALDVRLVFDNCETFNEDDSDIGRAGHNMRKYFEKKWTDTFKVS
row,Structure (SMILES),Potency
1,CCOC(=O)C(NS(=O)(=O)c1ccc(C)cc1)(C(F)(F)F)P(=O)(OCC(C)C)OCC(C)C (stereo not drawn),"inconclusive: 89.1 µM [inhibitor, single point]"
2,O=C(NC(Cc1ccccc1)C(=O)N1CCC2(CC1)OCCO2)C1CCCCC1 (stereo not drawn),"inconclusive: 3.55 µM [inhibitor, single point]"
3,Fc1cccc(CNCCc2c[nH]c3ccccc23)c1,"inconclusive: 79.4 µM [inhibitor, partial curve]"
4,O=C(Nc1ccc(Br)cc1C(=O)O)c1ccc2c(c1)C(=O)N(Cc1ccccc1)C2=O,"inconclusive: 22.4 µM [inhibitor, full curve]"
5,Cc1ccc(N)c(C(=O)c2ccc(Br)cc2)c1,active: 39.8 µM
6,Cc1ccc(-n2nc(C)c3c2OC(N)=C(C#N)C3c2cccs2)cc1 (stereo not drawn),active: 35.5 µM
7,N=Cc1c(O)n(-c2ccc(C34CC5CC(CC(C5)C3)C4)cc2)c(=O)[nH]c1=O,inactive
8,CCOc1cc(CNCCc2cccc(F)c2)ccc1OC,active: 44.7 µM
9,COc1ccc(N2C(=O)/C(=C/C=C/c3ccccc3[N+](=O)[O-])C(=O)NC2=S)cc1,active: 50.1 µM
10,CN(C)c1ccc(NC(=O)CN2C(=O)CN=C(c3ccccc3)c3ccccc32)cc1,active: 39.8 µM
11,CC(C)(C)NC(=O)NC(=O)CN1CC=C(c2ccccc2)CC1,"inconclusive: 89.1 µM [inhibitor, single point]"
12,O=C1NC(=O)N(c2ccc3c(c2)OCO3)C(=O)/C1=C\c1ccc(-c2ccccc2C(=O)O)o1,active: 79.4 µM
13,CN(C)[C@@H]1C(=O)C(C(N)=O)=C(O)[C@@]2(O)C(=O)C3=C(O)c4c(O)cccc4[C@@](C)(O)C3C[C@@H]12 (stereo partly drawn),active: 25.1 µM
14,Cc1cccc(CN2CCc3nc(N4CCN(c5ccccn5)CC4)ncc3C2)c1,active: 50.1 µM
15,CC(C)C[C@H]1C(=O)N2CCCC2[C@]2(O)O[C@](NC(=O)[C@@H]3C=C4c5cccc6[nH]cc(c56)CC4N(C)C3)(C(C)C)C(=O)N12 (stereo partly drawn),"inconclusive: 79.4 µM [inhibitor, partial curve]"
16,CN(C)S(=O)(=O)c1ccc(C(=O)NNc2nc(-c3ccccc3)c3cc(Br)ccc3n2)cc1,"inconclusive: 15.8 µM [inhibitor, full curve]"
17,CCOc1ccc(NC(=O)CN(c2ccc(Cl)cc2C)S(=O)(=O)c2ccccc2)cc1,"inconclusive: 89.1 µM [inhibitor, single point]"
18,CCn1c(O)c(/C=N/NC(=O)c2ccccc2)c(=O)[nH]c1=S,active: 39.8 µM
19,Cc1ccc(NC(=O)COc2ccc(-n3ccnc3)cc2)cc1Cl,"inconclusive: 39.8 µM [inhibitor, partial curve]"
20,C=CCSc1nc2c(c(-c3ccsc3)c1C#N)CN(C)CC2,inactive
21,COc1cc(/C=C/c2nc3ccccc3c(=O)n2-c2ccc(O)cc2)ccc1O,"inconclusive: 79.4 µM [inhibitor, single point]"
22,O=C(COc1ccccc1[N+](=O)[O-])N1CCN(CCc2ccncc2)CC1,inactive

row,Structure (SMILES),Potency
1,Cc1cccc(OCC(=O)N2CCN(Cc3cccnc3)CC2)c1,"inconclusive: 89.1 µM [inhibitor, single point]"
2,N=C1/C(=C\c2ccc(OC(=O)c3ccccc3Cl)cc2)C(=O)N=C2SC(N3CCOCC3)=NN12,active: 44.7 µM
3,COc1ccccc1N=c1scc(-c2ccc(S(=O)(=O)N3CCCC3)cc2)n1C,active: 8.91 µM
4,O=C1CN=C(c2cccs2)c2c(sc3c2CCCC3)N1,"inconclusive: 100 µM [inhibitor, single point]"
5,Cc1cccc(N2C(=O)NC(=O)/C(=C\C=C\c3ccco3)C2=O)c1,"inconclusive: 50.1 µM [inhibitor, partial curve]"
6,CCOc1cc(CNCCc2c[nH]c3ccccc23)cc(Cl)c1OC,"inconclusive: 89.1 µM [inhibitor, single point]"
7,Cc1cccc(CN2C(=O)CN=C(c3ccccc3)c3cc(Cl)ccc32)c1,inactive
8,CCCCCc1nc2ccccc2c(=O)n1-c1ccccc1[N+](=O)[O-],"inconclusive: 44.7 µM [inhibitor, partial curve]"
9,O=C(CN1CCN(C(=O)COc2cccc(F)c2)CC1)Nc1ccc(Cl)c(C(F)(F)F)c1,"inconclusive: 89.1 µM [inhibitor, single point]"
10,C[C@H]1CC[C@@]2(C)[C@@H](CC[C@@H]3[C@@H]2CC[C@]2(C)[C@@H](O)CC[C@@H]32)C1,inactive
11,O=C1NC(=O)C(=C/C=C/c2coc3ccc(Br)cc3c2=O)C(=O)N1,inactive
12,Cc1ncsc1CCOC(=O)c1ccc([N+](=O)[O-])cc1,"inconclusive: 56.2 µM [inhibitor, partial curve]"
13,Cc1[nH]c(=S)c(C#N)c2c1CCCC2,"inconclusive: 56.2 µM [inhibitor, partial curve]"
14,CC[N+](C)(CC)CCC[n+]1c(-c2ccccc2)c2cc(N)ccc2c2ccc(N)cc21,active: 44.7 µM
15,COc1cc(/C=N/NC(=O)CN2CC(c3ccccc3)CC2=O)ccc1OC(=O)N(C)C (stereo not drawn),inactive
16,O=C(c1ccc2c(c1)N(Cc1ccc(F)cc1)CCS2)N1CCC2(CC1)OCCO2,"inconclusive: 28.2 µM [inhibitor, single point]"
17,Cc1cccc(OCC(=O)N2CCN(Cc3ccc([N+](=O)[O-])cc3)CC2)c1,inactive
18,Cc1ccnc(-n2c(C)cc(C=C3C(=O)N(C)C(=S)N(C)C3=O)c2C)c1,"inconclusive: 44.7 µM [inhibitor, partial curve]"
19,Cc1ccc(Cl)cc1N1CCN(C(=O)c2cn(CC(C)C)c(=O)c3c2c2ccccc2n3C)CC1,"inconclusive: 50.1 µM [inhibitor, single point]"
20,CC(Cc1ccccc1)NC(=O)C(c1ccc(N)cc1)c1ccc(N)cc1 (stereo not drawn),"inconclusive: 79.4 µM [inhibitor, single point]"
21,COC(=O)C1=C(c2ccc(OCc3ccccc3)cc2)C[C@@H]2CC[C@H]1N2C(=O)NCc1ccc(N(C)C)cc1,active: 8.91 µM
